Reference: the RNAGym collection of RNA variant scans (doi:10.1093/nar/gkz1192)
The source gives no read counts; variants with many changes may rest on few reads.

B1: CPEB3 Ribozyme (parent)
chain: UAACAGGGGGCCACAGCAGAAGCGUUCACGUCGCAGCCCCUGUCAGAUUCUGGUGAAUCUGCGAAUUCUGCUGUAUAUCUC

Variants of: B1
Assay: self-cleavage, relative activity (ratio to wild type); higher = more cleavage; in vitro, sequencing
Outline: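 Barcoded CPEB3 ribozyme mutants, produced by rounds of error-prone PCR, self-cleaved while being transcribed with T7 RNA polymerase for 5 hours at 37°C and during a subsequent 15 min DNase I step before EDTA was added. Sequencing of template-switched cDNA on Illumina gave cleaved and total reads, and DNA sequencing assigned barcodes to variants. Each variant's relative activity is its cleaved/total read fraction divided by the unmutated ribozyme's fraction, averaged across three batches. A variant needed a minimum of 5 reads.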
With UAACAGGGGGCCACAGCAGGAGCGCUCACGCCGCAGCCCCUGUCGGAUUCUGGUGAAUCUGCGAAUUCUGCAGUAUAUCUC [A20G U25C U31C A45G U72A] the self-cleavage was 0.06. In the case of UAACAGGGGGCCACAGCAGGAGCGCUCACGCCGCAGCCCCUGUCAGAUUCUGGUGAAACAGCGAAUUCUGCUGUAUAUCUC [A20G U25C U31C U58A U60A], the self-cleavage is reported as 0.07. In the case of UAACAGGGGGCCACAGCAGGAGCGCUCACGGCGCAGCUCCUGUCAGAUUCUGGUGAAUCUGCGAAUUCUGCUGUAUAACUC [A20G U25C U31G C38U U78A], the self-cleavage is reported as 0.04. In the case of UAACAGGGGGCCACAGCAGGAGCGCUCACGGCGCAGCCCCUGCCAGAUUCUGGUGAAUCUGCGAAUUCUGCUGUAUAUCUC [A20G U25C U31G U43C], the self-cleavage is reported as 0.19. UAACAGGGGGCCACAGCAGGAGCGCUCACGUCGCAGCCCCAGCCAGAUUCUGGUGAAUCUGCGAAUUCUGCUGUAUAUCUC [A20G U25C U41A U43C] gave a self-cleavage of 0.07. Variant UAACAGGGGGCCACAGCAGGAGCGCUCACGUCGCAGCCCCAGUCAGAUUCUGGUGAAUCAGCGAAUUCUGCUGUAUAUCUC [A20G U25C U41A U60A] has a self-cleavage of 0.07. For UAACAGGGGGCCACAGCAGGAGCGCUCACGUCGCAGCCCCCGUCCGAUCCAGGUGAAUCUGAGAAUUCUGCUGUAUAUCUC [A20G U25C U41C A45C U49C U51A C62A], the self-cleavage was 0. UAACAGGGGGCCACAGCAGGAGCGCUCACGUCGCAGCCCCCGUCAGAUCCUGGUGUAUCUGCGAAUCCUGCUGUAUAUCUC [A20G U25C U41C U49C A56U U67C] showed a self-cleavage of 0.04. In the case of UAACAGGGGGCCACAGCAGGAGCGCUCACGUCGCAGCCCCUGACAGAUUCUGGUGAAUCAGCGAAUUCUGCUGUAUAUCUC [A20G U25C U43A U60A], the self-cleavage is reported as 0.18. With UAACAGGGGGCCACAGCAGGAGCGCUCACGUCGCAGCCCCUGCCAGAUUCUGGUGAAUCCGCGAAUUCUGCUGUAUAUCUC [A20G U25C U43C U60C] the self-cleavage was 0.25. In the case of UAACAGGGGGCCACAGCAGGAGCGCUCACGUCGCAGCCCCUGUCAGAUACUGGUGAAUCUGCGAAUUCUGCUGUAUUUCUC [A20G U25C U49A A77U], the self-cleavage is reported as 0.27. Work on UAACAGGGGGCCACAGCAGGAGCGCUCACGUCGCAGCCCCUGUCAGAUUCAGGUGAAUCUGCGGGUUCUGCUGUAUAUCUC [A20G U25C U51A A64G A65G] yielded a self-cleavage of 0.34. With UAACAGGGGGCCACAGCAGGAGCGCUCACGUCGCAGCCCCUGUCAGAUUCCGGUGAACCUGCGAAUUCUGCUGUAUAUCCC [A20G U25C U51C U58C U80C] the self-cleavage was 0.3. In the case of UAACAGGGGGCCACAGCAGGAGCGCUCACGUCGCAGCCCCUGUCAGAUUCUGGAGGAUCUGCGAAUUCUGCUGUAUAUCUC [A20G U25C U54A A56G], the self-cleavage is reported as 0.16. UAACAGGGGGCCACAGCAGGAGCGCUCACGUCGCAGCCCCUGUCAGAUUCUGGCGAAUCUGCGAAUUCUGCUGUAUAUCUC [A20G U25C U54C] showed a self-cleavage of 0.07. UAACAGGGGGCCACAGCAGGAGCGCUCACGUCGCAGCCCCUGUCAGAUUCUGGUGAAUCAGCGAAUUCUGCUGUAUAUCUC [A20G U25C U60A] gave a self-cleavage of 0.12. Variant UAACAGGGGGCCACAGCAGGAGCGCUCACGUCGCAGCCCCUGUCAGAUUCUGGUGAAUCAGCAAAUUCUGCUGUAUAUCUC [A20G U25C U60A G63A] has a self-cleavage of 0.22. With UAACAGGGGGCCACAGCAGGAGCGCUCACGUCGCAGCCCCUGUCAGAUUCUGGUGAAUCUGCGAAUUCCGCUGUAUAUCUC [A20G U25C U69C] the self-cleavage was 0.24. UAACAGGGGGCCACAGCAGGAGCGCUCACGUCGCAGCCCCUGUCAGAUUCUGGUGAAUCUGCGAAUUCUGCAGUACAUCUC [A20G U25C U72A U76C] gave a self-cleavage of 0.27. Work on UAACAGGGGGCCACAGCAGGAGCGCUCACGUCGCAGCCCCUGUCAGAUUCUGGUGAAUCUGCGAAUUCUGCCGUAUAUCAC [A20G U25C U72C U80A] yielded a self-cleavage of 0.11. In the case of UAACAGGGGGCCACAGCAGGAGCGCUCACGUCGCAGCCCCUGUCAGAUUCUGGUGAAUCUGCGAAUUCUGCUGUAUAUCCC [A20G U25C U80C], the self-cleavage is reported as 0.41. UAACAGGGGGCCACAGCAGGAGCGGUCACGUCGCGGCCCCUGUCAGAUUCUGGUGAAUCUGCGAAUUCUGCUGUAUAUCUC [A20G U25G A35G] gave a self-cleavage of 0.57. In the case of UAACAGGGGGCCACAGCAGGAGCGGUCACGUCGCAGCCCCUGUCAGGCUCUGGUGAAUCUGCGAAUUCCGCUGUAUAUCUC [A20G U25G A47G U48C U69C], the self-cleavage is reported as 0.06. For UAACAGGGGGCCACAGCAGGAGCGGUCACGUCGCAGCCCCUGUCAGAUUCUGGUGAAUCUGCGAAUUCUGCUGUACGUCUC [A20G U25G U76C A77G], the self-cleavage was 0.09. Variant UAACAGGGGGCCACAGCAGGAGCGUACGCGUCGCAGCCCCUGCCAGAUUCUGGUGAAUCUGCGAAUUCUGCCGUAUACCUC [A20G U26A A28G U43C U72C U78C] has a self-cleavage of 0.16. Work on UAACAGGGGGCCACAGCAGGAGCGUACACGUCGCGGCCCCUGUCAGAUUCUGGUGAAUCUGCGAAUUCUGCUGUAUAUCUC [A20G U26A A35G] yielded a self-cleavage of 1.21. In the case of UAACAGGGGGCCACAGCAGGAGCGUACACGUCGCUGCCCCUGUCAGAUUCUGGUGAAUCUGCGGAUUCUGCUGUAUAUCUC [A20G U26A A35U A64G], the self-cleavage is reported as 0.15. UAACAGGGGGCCACAGCAGGAGCGUACACGUCGCUGCCCCUGCCGGAUUCUGGUGAAUCUGCGGAUUCUGCUGAAUAUCUC [A20G U26A A35U U43C A45G A64G U74A] showed a self-cleavage of 0.04. With UAACAGGGGGCCACAGCAGGAGCGUACACGUCGCAGCCCCUGUCAGUUUCUGGUGGAUCUGCGAAUUCUGCUGUAUAUCUC [A20G U26A A47U A56G] the self-cleavage was 0.07. Work on UAACAGGGGGCCACAGCAGGAGCGUACACGUCGCAGCCCCUGUCAGAUUCUGGUGGACCUGCGGAUUCUGCCGUGUAUCUC [A20G U26A A56G U58C A64G U72C A75G] yielded a self-cleavage of 0. In the case of UAACAGGGGGCCACAGCAGGAGCGUACACGUCGCAGCCCCUGUCAGAUUCUGGUGAAUCUGCGGAUUCUGCUGUAUAUCUC [A20G U26A A64G], the self-cleavage is reported as 0.38. For UAACAGGGGGCCACAGCAGGAGCGUACACGUCGCAGCCCCUGUCAGAUUCUGGUGAAUCUGCGAGUUCUGCUGUACAUCUC [A20G U26A A65G U76C], the self-cleavage was 0.41. Work on UAACAGGGGGCCACAGCAGGAGCGUAGACGUCGCAGCCCCCGUCAGAUUCUGGUGAAUCUGCGAAUUCUGCUGUAUAUCUC [A20G U26A C27G U41C] yielded a self-cleavage of 0.32. In the case of UAACAGGGGGCCACAGCAGGAGCGUAGACGUCGCAGCCCCCGUCAGAUUCUGGUGAAUCGGCGAAUUCUGCUGUAUAUCUC [A20G U26A C27G U41C U60G], the self-cleavage is reported as 0.14.
